Article PMC12136788
This is one part of the list.

T1: UNK ZnF1-3 (human, UniProt Q9C0B0 31-174)
T1 sequence: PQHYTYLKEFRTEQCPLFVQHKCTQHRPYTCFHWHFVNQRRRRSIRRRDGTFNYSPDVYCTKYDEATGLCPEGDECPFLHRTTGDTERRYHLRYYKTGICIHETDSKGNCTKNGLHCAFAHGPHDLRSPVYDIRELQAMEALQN

B1: chr5:71493949:71493950:+_ENSG00000131711_ENST00000296755|hu_mus|FALSE|FALSE (ssRNA)
RNA: GGGAGUUCUACAGUCCGACGAUCUGGAGACAUUUCUGUUUCCUGGAACGUGGUAGGUGUUUGCACCACAGAAACGGACAGGGAGUCAUCAACUUCUGUGGAAUGUGGAGAACCCACCUCGGCAUGCAGAGAAGGAGACACGUCCAACAGAGGAUUGAGCAUCA
B2: chr15:76588000:76588001:-_ENSG00000140374_ENST00000560595|hu_mus|FALSE|FALSE (ssRNA)
RNA: GGGAGUUCUACAGUCCGACGAUCGGACACUUCACCUCCAAGACGUCCAGCUGCAGUGAUAGUAUUUAGAGUAAUGGGUGCUAGGGAAUCAUUUGCAUGCUCAGCUAUUACCAAGGUACUCUGAAAACGGAGCAAUGAGGCCGCCAACAGAGGAUUGAGCAUCA
B3: chr1:220276048:220276049:+_ENSG00000067704_ENST00000302637|hu_hu|hu_hu_hu_mus_True|58_108 (ssRNA)
RNA: GGGAGUUCUACAGUCCGACGAUCGCAAACAGCUUCAUUGGCGGGAAUUGUCCAAGGCUGGGUGGUCCAAACUAAAAUACUAACAGGGGAUGAGGCAUCUGUAAGAGACUCCAACUUCGGAGGAGGUCUCAGGAGGGGGAAUCUCAACAGAGGAUUGAGCAUCA
B4: chr2:48026839:48026840:+_ENSG00000116062_ENST00000540021|hu_hu|motif|central (ssRNA)
RNA: GGGAGUUCUACAGUCCGACGAUCAUAGUGUGCCACUAGAGUCCUAAAUCUCGAACAAUGGCGAUCAUCUGAAAACUGACCGGUGAAAAACUUUCCCAGUGAAGUAUCAACAAAGCACACACCAUAUGCACGAGUAUGGCCAGACAACAGAGGAUUGAGCAUCA
B5: chr5:162869536:162869537:+_ENSG00000113328_ENST00000340828|hu_hu|motif|central (ssRNA)
RNA: GGGAGUUCUACAGUCCGACGAUCAUAAUCCAGUUAAGGGACCAUUUCAGGAAUUGUUGGAAGGUGAGUUAUUCUGUAGUAGCGGUGCUUCAAUUGCCGUGCAGUACGCCCAGAAACAAUCCAUUUCAACUUCUGAACAUUUGGCAACAGAGGAUUGAGCAUCA
B6: chr14:89338683:89338684:+_ENSG00000165533_ENST00000346301|hu_hu|hu_hu_hu_mus_False|48_78 (ssRNA)
RNA: GGGAGUUCUACAGUCCGACGAUCGUGGUUGUUGUGGACCAGGGCCAGCCUGAAGCACUGAUGGGCCAAGUUUGUAUCUCCGAUUCCCACAGCUACAUGCCCCAGGUUGUACCAGACAUCAGCUGCCUCUUCUUCAUUUUCAGCCAACAGAGGAUUGAGCAUCA
B7: chr13:97419175:97419176:-_ENSMUSG00000021670_ENSMUST00000022176|mus_mus|FALSE|FALSE (ssRNA)
RNA: GGGAGUUCUACAGUCCGACGAUCUGAAACUUUACAUACAACAGCAAAGGCAAUCUUCCACAAUAAUACUGACACAAUCACUAAGAGGCUCCCAUGCUGCCGCGGCACUCUUGGAAUGUCUUUCAGAGUCCAUCUUCUACACAACAACAGAGGAUUGAGCAUCA
B8: 31071505_31071625_3404_3pUTR_ENSMUSG00000000194_ENSMUST00000056433|mouse|control|control (ssRNA)
RNA: GGGAGUUCUACAGUCCGACGAUCCCCAUUCCCCCGCCAUGCCUGGCUUCCCACCUACAGCAGUUCCAGGGCAAGACUUGGGAGGAUACUGCUGUAGCACACCUCCCAGCCCGUGCACCCAUGCCCUGGAAGGAGCAGGCUGUCCAACAGAGGAUUGAGCAUCA
B9: chr9:3385818:3385819:+_ENSMUSG00000025899_ENSMUST00000053407|mus_hu|FALSE|FALSE (ssRNA)
RNA: GGGAGUUCUACAGUCCGACGAUCGAUUUACUACAUUUAGUAGCACUUUACUAAAAAACUAUUAUCUUCAAAAUCCUGGGCUCUUACCCAAGAAUUACAAACACUGCACAAACUGCUUCAAUCACUUUUAGAAACCACCUCUCCCAACAGAGGAUUGAGCAUCA
B10: chr10:1038518:1038519:+_ENSG00000107937_ENST00000545048|hu_hu|hu_hu_hu_mus_False|28_28 (ssRNA)
RNA: GGGAGUUCUACAGUCCGACGAUCCAGUCUGUCAUGGUAAUUCUGUUGAGUAAAUUUGACUUUUCUCAUAUAAAAAUGUCGAAUCCGAUGAAUUUGAUAAUGUUUAUGAAUAACGGUUGGAGUCUUUCGUUGAGUCUUGGAUAACAACAGAGGAUUGAGCAUCA
B11: chr1:157160411:157160412:-_ENSMUSG00000026469_ENSMUST00000027741|mus_hu|motif|central (ssRNA)
RNA: GGGAGUUCUACAGUCCGACGAUCGAAUUCAAUCAGAAGAAAGCCACCCCGAUAGAUUCUUAUCAAGGGCCAUAUACUUCGGUCUGUUUCAAGUUUAAAUACAGCGGCAAGCACAAGGGUAAUAUUCAGUACAAUGAAUAUUCCCAACAGAGGAUUGAGCAUCA
B12: chrX:98862621:98862622:+_ENSMUSG00000034160_ENSMUST00000044475|mus_hu|mus_mus_mus_hu_False|8_8 (ssRNA)
RNA: GGGAGUUCUACAGUCCGACGAUCCUGCAUCUCCUUUAGAGUGUUUCCCAUAUUAGAGUAGGCAUCAGCAAAGGUAGGACUGAUUCGAAUAGCCUCCUUAUAAUGCAUCAGAGCUUCCUGCAGUUUUCCCUGCUGUUGCAGUACCAACAGAGGAUUGAGCAUCA
B13: 86271393_86272742_3322_3pUTR_ENSG00000068654_ENST00000263857|human|control|control (ssRNA)
RNA: GGGAGUUCUACAGUCCGACGAUCCACGACCAGCCCCUCUAGGUGCUUGAUGAUGCACCUUUGGAGAUAGCCUGAGCGGCUGGUUUUCACAGCAGUGUCCACCAGGCCCUCUCGUCCUGCCAUGCAGUGGAAGAAGAACUCAGGCAACAGAGGAUUGAGCAUCA
B14: chrX:69798090:69798091:-_ENSMUSG00000031343_ENSMUST00000055966|mus_mus|mus_mus_mus_hu_False|28_28 (ssRNA)
RNA: GGGAGUUCUACAGUCCGACGAUCAAGUCCCCGGGUUCUUGUCGUCUUGAUUCCCCUUGACCAGUGGUUCCAGGGAGAAUAUUAAUCAGGAAAAGAAUCCCAAGGCUGGUCACAUAACAGUGACUUGUUUGUGUGAUUAUCAUCCAACAGAGGAUUGAGCAUCA
B15: chr7:116084223:116084224:+_ENSMUSG00000031029_ENSMUST00000033342|mus_mus|motif|central (ssRNA)
RNA: GGGAGUUCUACAGUCCGACGAUCUGAGGCCCCUCCCACUUGUUGUAAGUCACUUGAGAGUCCAAUCACCCGGUUGGGGCGGAAACACGUCUUCAUGAUGAGGUCAACUCCAAUGCGUUCAGUGUCAUAAUACGCGUACUUCACCAACAGAGGAUUGAGCAUCA
B16: chr4:190862081:190862082:+_ENSG00000109536_ENST00000226798|hu_hu|FALSE|FALSE (ssRNA)
RNA: GGGAGUUCUACAGUCCGACGAUCGGCUGAGGCCGGUUCUGGACGAGUAUGUGAGUCGGGGCAGCACAGGGGCGCGGAGAAACAGAAGCGGACGCGAAAUAAACACUCCCUGACAGCCUACGUCUCUGUAGAACCCGCCUCCGUCAACAGAGGAUUGAGCAUCA
B17: chr9:111179681:111179682:+_ENSMUSG00000046785_ENSMUST00000060711|mus_hu|FALSE|FALSE (ssRNA)
RNA: GGGAGUUCUACAGUCCGACGAUCAACUUAAUAUUACAUAGUGGAUUUGGUGUGUAUAUUUGGUUUUGAAUCCUGAGUUUACUACUUACUGUGUUUACCAGGGAAAACCGCAAUUUGUUAUCCUUCUCUCCUUUCAUACAACAGCAACAGAGGAUUGAGCAUCA
B18: chr6:64423786:64423787:+_ENSG00000118482_ENST00000393387|hu_hu|FALSE|FALSE (ssRNA)
RNA: GGGAGUUCUACAGUCCGACGAUCAACAAAUCUUUGAAUAUACAGCAAUGUAAAACUUUUAAAAAUAUUAAAUUCCUAUAACUAGGGACCGUUGGUAUGAAGAAGGGAUGAUGAGCACUGGUACAGAGCACUCUGUACCAACACCAACAGAGGAUUGAGCAUCA
B19: chr6:31635678:31635679:+_ENSG00000204435_ENST00000375882|hu_mus|FALSE|FALSE (ssRNA)
RNA: GGGAGUUCUACAGUCCGACGAUCUAAGAUCAUGUCCAGAGCUUGUCGAUAGUGAGGCACCUGCUCAUUGAGUCCAGUAAGAUUAAAUUUGUCCUGGAUGUAGUCUUCAUCCACCUCACAGAAGAAUUCAUUACCACGGAGCCCCAACAGAGGAUUGAGCAUCA
B20: chr7:138235809:138235810:+_ENSG00000122779_ENST00000415680|hu_hu|motif|central (ssRNA)
RNA: GGGAGUUCUACAGUCCGACGAUCGGAUGCAUCACACCUUGCACGAAGGAGGUGCCGUAACCGGUAUGUAAUCAGUCGUUUGCGGUAAAGUAAUGCUGUACUGCUGCCACUGGAAACUGCCCAUUUAGAAAAAUGCAUGACAUGCAACAGAGGAUUGAGCAUCA
B21: chr8:101931661:101931662:-_ENSG00000164924_ENST00000353245|hu_hu|FALSE|FALSE (ssRNA)
RNA: GGGAGUUCUACAGUCCGACGAUCUAAGUUAGAAAAUGCCAUAUGCCAAAAUUUUAAAUGGAACACACUACAUUUUUUUCUAAUCAAUCCCCCCCUCUCCCAGAAAAAAUAGGAACUCAUUUUUUUCAGGGUGGGGAGGAAGAGCAACAGAGGAUUGAGCAUCA
B22: chr7:141445308:141445309:+_ENSG00000106028_ENST00000265304|hu_hu|hu_hu_hu_mus_False|38_88 (ssRNA)
RNA: GGGAGUUCUACAGUCCGACGAUCUAUGAUUGUUGUUGCUUGCCGCCUCACAUUAUUUUUAUCCAUGUACUCGCCAUAGUCCACUUUCCCUUCCACAUAAAUUCGAGCCCCCUUUUUCACAUACUGAUAUGCCACAUCUCUGAGCAACAGAGGAUUGAGCAUCA

Target: T1, UNK ZnF1-3
Experiment: nsRBNS (natural sequence RNA bind-n-seq); RBNS binding buffer (assumed for nsRBNS): 25 mM Tris pH 7.5, 150 mM KCl, 3 mM MgCl2, 0.01% Triton X-100, 500 ug/ml BSA, 20 U/ml SUPERase-In, 4 C; UNK is unkempt and MSI1 is Musashi-1; names of the RNAs are library labels; protein concentration not given here; high values mean tight binding

| Binder | binding signal |
| --- | --- |
| B1 | 0.912 enrichment R |
| B2 | 1.4 enrichment R |
| B3 | 2.09 enrichment R |
| B4 | 1.25 enrichment R |
| B5 | 0.651 enrichment R |
| B6 | 0.76 enrichment R |
| B7 | 1.16 enrichment R |
| B8 | 0.746 enrichment R |
| B9 | 1.34 enrichment R |
| B10 | 0.717 enrichment R |
| B11 | 1.22 enrichment R |
| B12 | 1.17 enrichment R |
| B13 | 0.588 enrichment R |
| B14 | 0.537 enrichment R |
| B15 | 0.972 enrichment R |
| B16 | 0.622 enrichment R |
| B17 | 0.702 enrichment R |
| B18 | 1.32 enrichment R |
| B19 | 1.4 enrichment R |
| B20 | 1.13 enrichment R |
| B21 | 0.576 enrichment R |
| B22 | 0.735 enrichment R |
